In paper PMC4336329 (PLoS ONE, 2015):
The campaign covered roughly 310,000 compounds. About 14,000 (4.5%) showed an effect of 50% or more. The effect is printed as a negative number. The list shows a part of the results.

target: human ether-à-go-go-related gene (hERG) potassium channel (human, UniProt Q12809); assay: primary screen, population patch clamp on CHO cells stably expressing hERG
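Also: peak tail current of the secondary pulse compared with the same well before compound.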

Sequence of human ether-à-go-go-related gene (hERG) potassium channel (Q12809 whole entry, looked up): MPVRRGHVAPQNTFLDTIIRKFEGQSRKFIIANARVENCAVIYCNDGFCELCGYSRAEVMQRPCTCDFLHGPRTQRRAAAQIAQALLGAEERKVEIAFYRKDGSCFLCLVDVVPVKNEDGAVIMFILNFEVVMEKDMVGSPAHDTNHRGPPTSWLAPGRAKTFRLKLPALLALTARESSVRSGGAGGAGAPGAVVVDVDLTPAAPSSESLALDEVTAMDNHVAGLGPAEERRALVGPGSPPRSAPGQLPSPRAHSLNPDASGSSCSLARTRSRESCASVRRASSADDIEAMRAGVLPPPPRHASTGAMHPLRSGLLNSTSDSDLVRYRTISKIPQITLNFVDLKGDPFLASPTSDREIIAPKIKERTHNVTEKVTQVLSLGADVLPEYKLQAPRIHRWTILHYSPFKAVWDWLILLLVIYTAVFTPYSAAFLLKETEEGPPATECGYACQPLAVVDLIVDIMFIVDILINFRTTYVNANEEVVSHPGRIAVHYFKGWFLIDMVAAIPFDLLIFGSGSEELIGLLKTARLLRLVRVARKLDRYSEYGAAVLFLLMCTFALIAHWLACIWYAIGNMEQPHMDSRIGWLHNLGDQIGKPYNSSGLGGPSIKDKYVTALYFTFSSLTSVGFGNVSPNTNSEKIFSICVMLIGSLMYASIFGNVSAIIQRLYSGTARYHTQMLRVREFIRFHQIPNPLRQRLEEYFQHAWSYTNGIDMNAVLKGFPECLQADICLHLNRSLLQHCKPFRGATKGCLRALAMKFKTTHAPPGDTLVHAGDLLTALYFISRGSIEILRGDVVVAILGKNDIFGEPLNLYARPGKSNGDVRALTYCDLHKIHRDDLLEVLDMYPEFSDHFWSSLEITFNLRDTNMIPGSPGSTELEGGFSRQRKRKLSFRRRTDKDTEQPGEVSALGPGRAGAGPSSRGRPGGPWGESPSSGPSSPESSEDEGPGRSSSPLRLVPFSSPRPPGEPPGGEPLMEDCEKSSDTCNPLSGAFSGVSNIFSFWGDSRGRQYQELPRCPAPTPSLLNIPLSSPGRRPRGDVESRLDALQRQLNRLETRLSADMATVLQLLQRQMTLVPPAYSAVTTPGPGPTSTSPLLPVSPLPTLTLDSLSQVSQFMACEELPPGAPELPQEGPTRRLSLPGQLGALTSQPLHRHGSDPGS

SMILES | hERG current change (%, negative = inhibition) at 10uM [%]
CCOC(=O)c1c(C)[nH]c(C(=O)COC(=O)c2ccc(O)cc2O)c1C.CN(C)C=O | 18.3
COC(=O)CSc1nccc(-c2ccc(F)cc2)c1C#N | 9.95
Cc1ccc(S(=O)(=O)N(C)c2c(C)ccc(S(=O)(=O)N3CCN(C=O)CC3)c2C)cc1 | -42.8
COC(=O)c1cc(S(=O)(=O)NCCCN2CCCC2=O)cn1C | 10.7
COc1ccc(CC(=O)Nc2nc(-c3ccc(F)c(F)c3)cs2)cc1OC | -8.09
Cc1cc(C(=O)OCC(=O)N2CC(=O)Nc3ccccc32)c(C)n1-c1ccc(F)cc1 | -15.4
Cc1onc(C(=O)Nc2cccnc2Cl)c1[N+](=O)[O-] | 17
O=C(c1cc2ccccc2oc1=O)N(c1ccc(Cl)cc1)C1C=CS(=O)(=O)C1 (centres unmarked) | -6.18
CCCCc1cn(C[C@H]2CC[C@@H]([C@@H]3CC[C@H](Cn4cc(CCCC)nn4)O3)O2)nn1 | -54.9
Cc1cc(NC(=O)c2ccc([N+](=O)[O-])cc2Cl)no1 | 9.18
CCCCN(CCCC)CC(O)COc1ccccc1C(=O)Nc1ccccc1 (centres unmarked) | -98.7
CC1=NN(C(N)=S)C(=O)C1N=Nc1ccc(Br)cc1 (centres unmarked) | 16.6
CC1=Nc2cc([N+](=O)[O-])ccc2NC(C)(C)C1 | -24
CN(C)/C(CN1CCCCC1)=C1\N=C(c2ccccc2)OC1=O | -36
COc1ccc(-c2nnc(SCC(=O)Nc3cc(C)on3)n2N)cc1OC | 20.2
CN(C)/C=C(\C#N)S(=O)(=O)C(C)(C)C | 12.8
CCN(CC)CCN1C(=O)c2oc3ccccc3c(=O)c2C1c1cccc(Br)c1 (centres unmarked) | -44.2
O=C(O)C1Sc2[nH]c(=O)sc2C2c3cc(Br)ccc3OC(=O)C12 (centres unmarked) | 16.7
COc1ccc(NC(=O)CN(c2cccc(F)c2)S(C)(=O)=O)cc1OC | 6.14
COc1cc(NC(=O)C2CCN(S(=O)(=O)c3ccc4[nH]c(=O)oc4c3)CC2)cc(OC)c1 | 15.2
CCOc1ncccc1C(=O)Nc1ncc(C)s1 | 18.6
O=P(Oc1ccccc1)(Oc1ccccc1)C(O)c1ccccc1 (centres unmarked) | 1.19

SMILES | hERG current change (%, negative = inhibition) at 10uM [%]
CCCCCCCN1C/C=C\C(c2ccc(OC)cc2)N(Cc2ccc(F)cc2)C(=O)[C@H]1Cc1ccccc1 (some centres unmarked) | 8.55
COCCNC(=O)COC(=O)c1ccc(OCC(=O)Nc2ccccc2OC)c(OC)c1 | 7.77
O=C(CN1C(=O)/C(=C/c2ccccc2)SC1=S)NC1C=CS(=O)(=O)C1 (centres unmarked) | 16.5
CCOC(=O)c1c(C)nc2sc(C(=O)Nc3ccc(OC)cc3)c(N)c2c1-c1ccc(OC)cc1 | 4.12
CCCN(CCO)Cc1cccc(Br)c1 | -0.752
CC(=O)Nc1ccc(NC(=O)c2nc(S(=O)(=O)Cc3ccccc3)ncc2Cl)cc1 | 15.4
CCOC(=O)c1oc2cccc(OCC(O)CNC(C)C)c2c1C.Cl (centres unmarked) | -19.2
CSc1nc(C)cc(SCCO)n1 | 1.95
NS(=O)(=O)c1ccc(CCNC(=O)C2CCN(S(=O)(=O)c3cccc4cccnc34)CC2)cc1 | -2.52
COc1ccc(NC(=O)c2cc(SC)ccc2Cl)cc1 | 12
Cc1ccc(S(=O)(=O)N(CC(=O)N2CCOCC2)C2CCCCC2)cc1 | -23.3
CNC(=O)c1cc(C(=O)c2ccc(F)cc2C(F)(F)F)c[nH]1 | 9.93
Cc1cccc(NC(=O)NC(C)C(c2cccs2)N2CCOCC2)c1 (centres unmarked) | 20.5
O=S(=O)(N/N=C/c1ccccc1F)c1ccccc1 | 3.82
Cn1c(COc2ccccc2)nnc1SCC(=O)NNC(=O)C1CCCCC1 | 8.06
COc1ccc(N2CCN(CCCNC(=O)CN3CCN(Cc4ccccc4C)C3=O)CC2)cc1 | -46.5
Cc1ccc(OCC(=O)NN=C2C3CC4CC(C3)CC2C4)cc1 | -2.32
NS(=O)(=O)c1ccc(CCNC(=O)COC(=O)CCN2C(=O)C3CC=CCC3C2=O)cc1 (centres unmarked) | 0.797
O=C(Nc1cccc(-c2cn3cccnc3n2)c1)c1cccs1 | -20.7
COc1ccc(C2CC(c3ccccc3OC(C)=O)=NN2C(=O)/C=C/c2ccccc2)cc1OC (centres unmarked) | -22.1
O=C(NC1CCCCC1)C(c1ccccn1)N(C(=O)Cc1cccs1)c1ccc(Cl)cc1 (centres unmarked) | -20.3
Cn1cc(/C=C/C(=O)c2ccccc2)c2ccccc21 | 22.7

SMILES | hERG current change (%, negative = inhibition) at 10uM [%]
COC(=O)[C@@H]1CC[C@@](C)(c2ccc(OC)cc2)C1(C)C | 1.76
CC(C)N(Cc1ccccc1)C(=O)COC(=O)/C=C/c1cnc2ccccc2n1 | 3.93
Cc1cc2ccccn2c1C(=O)c1ccc(NN)c([N+](=O)[O-])c1 | -6.4
O=S(=O)(c1ccc(-c2ccccc2)cc1)N1CCCC1 | 10.2
Cn1ccsc1=NC(=O)c1ccc(Cl)c([N+](=O)[O-])c1 | 12.4
O=C(NC1CCCCC1)N(Cc1ccc(F)cc1)Cc1nc2ccccc2c(=O)[nH]1 | 0.0493
Cc1nnc(SCc2cc(=O)[nH]c(=S)[nH]2)s1 | 24.8
Cc1cccc(C)c1NC(=O)CN(C)C(=O)c1cccc(S(=O)(=O)N2CCN(c3ccc(F)cc3)CC2)c1 | -16.8
COc1ccc(-c2csc(NC(=O)c3cccs3)c2C(=O)O)cc1OC | 4.47
O=C(NCc1ccccc1F)C1CCCN(C(=O)Nc2ccccc2)C1 (centres unmarked) | 3.18
Cc1cc(S(=O)(=O)N2CCOCC2)ccc1OCC(=O)NCC1CCCO1 (centres unmarked) | -0.633
C/C(CC(=O)Nc1ccc2c(c1)OCCO2)=N\NC(=O)c1ccccc1F | 22.4
CCc1ccc(NC(=O)C(C)OC(=O)C2CCN(c3ccc(C(F)(F)F)cn3)CC2)cc1 (centres unmarked) | -16.3
CCNC(=S)N1CCn2cccc2C1c1ccc(F)cc1 (centres unmarked) | -26.8
CCN(CC)C(=O)c1sc(NC(=S)N2CCN(C(=O)C3CCCO3)CC2)c(C(=O)OC)c1C (centres unmarked) | -4.64
CCc1ccc(-c2cc(C)no2)cc1S(=O)(=O)N1CCOc2ccc(C)cc21 | 13.1
CCCCCc1cc(=O)oc2c(C(CCN(CC)CC)c3ccc(N(C)C)cc3)c(OC)cc(OC)c12 (centres unmarked) | -33.6
CCN1CCN(CCNC(=O)c2ccc3c(c2)N(Cc2cccc(Cl)c2)C(=O)c2ccccc2S3=O)CC1 (centres unmarked) | -40.2
O=C(OCC(=O)N1CCOCC1)c1ccc2[nH]c3c(c2c1)CCCC3 | 6.19
COc1ccc(OCC(=O)NCCc2c[nH]c3ccccc23)cc1.O=C(O)C(=O)O | -15.9
O=C(NCc1ccco1)c1ccc(COc2ccccc2[N+](=O)[O-])o1 | -21.6
COc1ccc(-c2nn(-c3ccccc3)cc2C(=O)N/N=C/c2ccc([N+](=O)[O-])o2)cc1 | -38.2

SMILES | hERG current change (%, negative = inhibition) at 10uM [%]
CCSc1nnc2n1C(C)(C)Cc1ccccc1-2 | 0.0135
CC1(C)CC2CC(C)(CN2C(=S)Nc2ccccc2)C1 (centres unmarked) | 2.9
CCN(CC(=O)Nc1ccccc1OC)CC(=O)Nc1ccccc1-c1ccccc1 | -5.14
COc1ccc(NC2CCCN(C(=O)c3oc(C)cc3C)C2)cc1OC (centres unmarked) | 16.2
CC(=O)Nc1nc(-c2ccc3c(c2)CCN3C(=O)C2CC2)c(C)s1 | -1.04
CCc1nccn1CCC(=O)N1CCCC(Nc2ccc(F)cc2)C1 (centres unmarked) | -15.8
CCC1CCCCN1C(=O)c1nn2cccnc2c1Cl (centres unmarked) | -1.22
O=C(CCCn1c(SCC(=O)NCC2CCCO2)nc2ccccc2c1=O)NCC1CCCO1 (centres unmarked) | -5.18
O=C(NC(=S)NNC(=O)c1ccccc1F)c1cccnc1 | 19.7
COc1cccc(-n2c(N)cc(=O)nc2SCC(=O)Nc2cc(C)on2)c1 | 18.6
COc1ccc(-c2nc(CSCC(=O)NCc3ccc4c(c3)OCO4)c(C)o2)cc1OC | -29.3
O=C(N/N=C/C=C/c1ccccc1)NC1CCCCC1 | -2.61
O=C(COc1ccc(Cl)cc1)Nc1ccccc1C(=O)NCc1ccco1 | 4.32
CCOC(=O)c1sc2nc(C)nc(Nc3ccc(OC)c(OC)c3)c2c1C | 23.5
O=C(/C=C(\c1ccccc1)n1cncn1)c1ccccc1 | 3.01
COc1ccc(Cl)cc1C(=O)NCc1ccc2c(c1)OCO2 | 0.693
Cc1cc(C(=O)NNC(=O)c2cccs2)c(C)o1 | 7.06
CCN(CC)CCCNC(=O)c1ccc2c(Cl)c3c(nc2c1)CCCC3 | -48.7
O=C(c1ccc(Cl)cc1)c1cc([N+](=O)[O-])ccc1N1CCOCC1 | -32.4
O=C(c1ccccc1)c1cccc(NC(=O)c2ccc(Br)o2)c1 | -61.1
